Values marked as one replicate rest on one cluster of the flow cell; about a third of the high ones do not repeat.
tested on: ATP; assay: switch fluorescence ratio, 500 uM ATP over buffer (Cy3 cluster intensity, sum of 5 cycles each) (fold (ratio)); higher = stronger signal-on switching upon ATP binding; sequences stand for … in TCGTCGGCAGCGTCAGATGTGTATAAGAGACAGTTTTTTTTTTTTTTTTTTTTTTTTT…TC; settings: aptamer strand: ATP DNA aptamer (quencher-CACCTGGGGGAGTATTGCGGAGGAAGG + anchor), 100 nM annealed; ATP concentration: 500 uM; one replicate
Outline: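 Five buffer/ATP imaging cycles were run on Cy3-labelled switching-strand clusters on a modified Illumina MiSeq flow-cell, with NaOH stripping and re-annealing between cycles. In each cycle, clusters annealed to 100 nM quencher-labelled ATP aptamer were imaged in selection buffer, then after 15 min with 500 uM ATP at 22 °C. Per cluster, the fluorescence ratio is summed target-cycle over summed buffer-cycle Cy3 intensity, averaged per switch-domain sequence. Only clusters within 100-1000 RFU were kept.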
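Also: ATP exposure 15 min at 22 °C before imaging.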

Sequence	switch fluorescence ratio
TCCGTCGTGC	1.3
TCCGTGAGGA	1.06
TCCGTGGCAG	1.39
TCCGTGTCTC	1.22
TCCGTGTTTG	0.987
TCCGTTCTTC	0.983
TCCGTTGGTC	1.09
TCCTAAAGAG	1.02
TCCTAAGCTT	1.47
TCCTAATCTC	0.992
TCCTCGTCGG	1.19
TCCTCTTGAC	1.55
TCCTGAGTCT	1.08
TCCTGATTAC	1.26
TCCTGCCACA	1.42
TCCTGGGTGC	2.43
TCCTGGTTTC	1.04
TCCTGTAATT	1.07
TCCTGTAGAA	1.17
TCCTTACAAT	1.62
TCCTTAGTTA	0.995
TCCTTCACCG	1.94
TCCTTCCCGA	1.72
TCCTTGCGCT	1.61
TCCTTTAGAA	1.01

Sequence	switch fluorescence ratio
TCCTTTTCG	1.08
TCGAAAGCGG	1
TCGAAAGGGA	0.99
TCGAACATTA	1.02
TCGAACGTC	1.16
TCGAAGCTTG	1.05
TCGAAGGTAG	1.04
TCGAAGGTGT	1.03
TCGAATCCTG	0.993
TCGACCACTC	1.5
TCGACCGTCT	1.07
TCGACCTTGG	1.09
TCGACGACA	1.18
TCGACGACAT	1.86
TCGACGGCGC	1.16
TCGACGGGG	1.07
TCGACGGTGC	1.98
TCGACGTTT	1.09
TCGACTCTGT	1
TCGAGACTTC	0.998
TCGAGAGAAG	1.01
TCGAGCTCCT	1.04
TCGAGGCCTT	0.981
TCGAGGCGCT	0.971
TCGAGTCAAG	1.07

Sequence	switch fluorescence ratio
TCGAGTGTGG	1.03
TCGATGCAGG	1.18
TCGATTAATC	1.02
TCGATTAGAG	1.15
TCGATTGAAT	0.964
TCGATTGGAC	1.06
TCGATTTACG	0.924
TCGCAACGTG	1.03
TCGCAGAGGG	0.981
TCGCAGCCAG	1.1
TCGCAGTGAT	1.44
TCGCATATA	1.19
TCGCATGTT	1.23
TCGCATGTTT	1.06
TCGCATTCT	1.35
TCGCCGTCCG	1.04
TCGCCTTGCT	1.04
TCGCGAACC	1.09
TCGCGCTGAG	1.02
TCGCGGCATA	0.987
TCGCGGTTTT	1.06
TCGCGTATTG	1.45
TCGCGTCATC	1.02
TCGCGTTTGG	1
TCGCTCCCGT	1.04

Sequence	switch fluorescence ratio
TCGCTCGCTA	1.72
TCGCTCGGTT	0.996
TCGCTGCAGC	1.04
TCGCTTCGAA	1.01
TCGCTTGT	1.05
TCGCTTTTTA	1
TCGCTTTTTC	1.1
TCGGAACTAA	0.987
TCGGAAGTC	1.04
TCGGACACA	0.953
TCGGACAGCG	1.02
TCGGACCAGG	1.1
TCGGACGGTG	1.03
TCGGAGCAGA	5.09
TCGGAGTCAT	1.37
TCGGAGTCTT	0.982
TCGGATAACG	1.04
TCGGATAAGG	0.979
TCGGATACTG	1.07
TCGGATTCGT	1
TCGGCAAATA	1.24
TCGGCAAGGT	1.23
TCGGCACACT	1.14
TCGGCACGGG	0.975
TCGGCACTTG	0.979
